# Data taken from the supplement of paper PMC8728848.
# This is one part of the list.
# B1: PpFlo1 (Pichia pastoris) (protein)
# chain: MGSSHHHHHHSSGLVPRGSHMQESGDGDISDSAYACDIDATRYDGFNATIYEFQPGDGRLTRDPVFMSTGYLNRTQLHSITGVTDPGFSIYTPGVPTTTLYGIPNVNWENLLLELKGYFRAEVSGDYGLSLRNIDDSAILFFGKETAFQCCNENSISNEASTDYSLFTIFRQEGDETTNLDSFTYTQYLEAGKYYPVRTFFVNIERHAVFNFTMTLPDGTELTDFHNYIYQFGALDEEQCQA
# Assays:
# Assay in all cases: glycan array binding signal (z-score within array); higher = stronger binding
# Conditions in all cases: glycan notation: IUPAC condensed, linker removed
# Gal3S(b1-4)Glc = biological target: Gal3S(b1-4)Glc
# How it was run: (§1)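 Columns mapping to the same glycan were averaged after glycan names were converted to IUPAC-condensed notation. The data come from 3228 arrays in the Consortium for Functional Glycomics database, limited to those with an available protein sequence. Binding is reported as a within-array Z-score averaged across arrays of one protein sequence and across linkers.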
# Gal3S(b1-4)Glc6S = biological target: Gal3S(b1-4)Glc6S
# How it was run: as §1
# Gal3S(b1-4)GlcNAc = biological target: Gal3S(b1-4)GlcNAc
# How it was run: as §1
# Gal3S(b1-4)GlcNAc6S = biological target: Gal3S(b1-4)GlcNAc6S
# How it was run: as §1
# [1] = biological target: Gal3S(b1-4)[Fuc(a1-3)]Glc
# How it was run: as §1
# [2] = biological target: Gal3S(b1-4)[Fuc(a1-3)]Glc6S
# How it was run: as §1
# [3] = biological target: Gal3S(b1-4)[Fuc(a1-3)]GlcNAc
# How it was run: as §1
# [4] = biological target: Gal3S(b1-4)[Fuc(a1-3)]GlcNAc6S
# How it was run: as §1
# Gal3S4S(b1-4)GlcNAc = biological target: Gal3S4S(b1-4)GlcNAc
# How it was run: as §1
# Gal3S6S(b1-4)GlcNAc = biological target: Gal3S6S(b1-4)GlcNAc
# How it was run: as §1
# Gal3S6S(b1-4)GlcNAc6S = biological target: Gal3S6S(b1-4)GlcNAc6S
# How it was run: as §1
# Gal4S(b1-4)GlcNAc = biological target: Gal4S(b1-4)GlcNAc
# How it was run: as §1
# Gal4S6S(b1-4)GlcNAc = biological target: Gal4S6S(b1-4)GlcNAc
# How it was run: as §1
# Gal6P(b1-4)GlcNAc = biological target: Gal6P(b1-4)GlcNAc
# How it was run: as §1
# Gal6S(b1-3)GlcNAc = biological target: Gal6S(b1-3)GlcNAc
# How it was run: as §1
# Gal6S(b1-3)GlcNAc6S = biological target: Gal6S(b1-3)GlcNAc6S
# How it was run: as §1
# Gal6S(b1-4)Glc = biological target: Gal6S(b1-4)Glc
# How it was run: as §1
# Gal6S(b1-4)Glc6S = biological target: Gal6S(b1-4)Glc6S
# How it was run: as §1
# Gal6S(b1-4)GlcNAc = biological target: Gal6S(b1-4)GlcNAc
# How it was run: as §1
# Gal6S(b1-4)GlcNAc6S = biological target: Gal6S(b1-4)GlcNAc6S
# How it was run: as §1
# GalNAc(a1-3)Gal = biological target: GalNAc(a1-3)Gal
# How it was run: as §1
# GalNAc(a1-3)GalNAc = biological target: GalNAc(a1-3)GalNAc
# How it was run: as §1
# [5] = biological target: GalNAc(a1-3)GalNAc(a1-3)Gal(a1-4)Gal(b1-4)GlcNAc
# How it was run: as §1
# [6] = biological target: GalNAc(a1-3)GalNAc(b1-3)Gal(a1-4)Gal(b1-4)Glc
# How it was run: as §1
# [7] = biological target: GalNAc(a1-3)GalNAc(b1-3)Gal(a1-4)Gal(b1-4)GlcNAc
# How it was run: as §1
# GalNAc(b1-3)Gal = biological target: GalNAc(b1-3)Gal
# How it was run: as §1
# [8] = biological target: GalNAc(b1-3)Gal(a1-4)Gal(b1-4)GlcNAc
# How it was run: as §1
# [9] = biological target: GalNAc(b1-3)Gal(a1-4)Gal(b1-4)GlcNAc(b1-3)Gal(b1-4)Glc
# How it was run: as §1
# [10] = biological target: GalNAc(b1-3)Gal(a1-6)Gal(b1-4)Glc
# How it was run: as §1
# GalNAc(b1-3)GalNAc = biological target: GalNAc(b1-3)GalNAc
# How it was run: as §1
# GalNAc(b1-3)GlcNAc = biological target: GalNAc(b1-3)GlcNAc
# How it was run: as §1
# GalNAc(b1-4)Gal(b1-4)Glc = biological target: GalNAc(b1-4)Gal(b1-4)Glc
# How it was run: as §1
# GalNAc(b1-4)GlcNAc = biological target: GalNAc(b1-4)GlcNAc
# How it was run: as §1
# [11] = biological target: GalNAc(b1-4)GlcNAc(b1-2)Man
# How it was run: as §1
# [12] = biological target: GalNAc(b1-4)GlcNAc(b1-2)Man(a1-3)[GalNAc(b1-4)GlcNAc(b1-2)Man(a1-6)]Man(b1-4)GlcNAc(b1-4)GlcNAc
# How it was run: as §1
# [13] = biological target: GalNAc(b1-4)GlcNAc(b1-3)GalNAc(b1-4)GlcNAc
# How it was run: as §1
# GalNAc(b1-4)GlcNAc6S = biological target: GalNAc(b1-4)GlcNAc6S
# How it was run: as §1
# GalNAc(b1-6)GalNAc = biological target: GalNAc(b1-6)GalNAc
# How it was run: as §1
# GalNAc3S(b1-4)GlcNAc = biological target: GalNAc3S(b1-4)GlcNAc
# How it was run: as §1
# GalNAc3S(b1-4)GlcNAc3S = biological target: GalNAc3S(b1-4)GlcNAc3S
# How it was run: as §1
# [14] = biological target: GalNAc3S(b1-4)[Fuc(a1-3)]GlcNAc
# How it was run: as §1
# GalNAc4S6S(b1-4)GlcNAc = biological target: GalNAc4S6S(b1-4)GlcNAc
# How it was run: as §1
# GalNAc6S(b1-4)GlcNAc = biological target: GalNAc6S(b1-4)GlcNAc
# How it was run: as §1
# Glc(a1-4)Glc = biological target: Glc(a1-4)Glc
# How it was run: as §1
# [15] = biological target: Glc(a1-4)Glc(a1-4)Glc(a1-4)Glc
# How it was run: as §1
binder,measurement,setting,value
B1,glycan array binding signal (z-score),Gal3S(b1-4)Glc,-0.403
same,glycan array binding signal (z-score),Gal3S(b1-4)Glc6S,0.353
same,glycan array binding signal (z-score),Gal3S(b1-4)GlcNAc,0.158
same,glycan array binding signal (z-score),Gal3S(b1-4)GlcNAc6S,0.164
same,glycan array binding signal (z-score),[1],0.052
same,glycan array binding signal (z-score),[2],0.934
same,glycan array binding signal (z-score),[3],0.013
same,glycan array binding signal (z-score),[4],-0.354
same,glycan array binding signal (z-score),Gal3S4S(b1-4)GlcNAc,-0.182
same,glycan array binding signal (z-score),Gal3S6S(b1-4)GlcNAc,0.214
same,glycan array binding signal (z-score),Gal3S6S(b1-4)GlcNAc6S,1.38
same,glycan array binding signal (z-score),Gal4S(b1-4)GlcNAc,-0.487
same,glycan array binding signal (z-score),Gal4S6S(b1-4)GlcNAc,-0.059
same,glycan array binding signal (z-score),Gal6P(b1-4)GlcNAc,-0.185
same,glycan array binding signal (z-score),Gal6S(b1-3)GlcNAc,0.424
same,glycan array binding signal (z-score),Gal6S(b1-3)GlcNAc6S,2.66
same,glycan array binding signal (z-score),Gal6S(b1-4)Glc,-0.06
same,glycan array binding signal (z-score),Gal6S(b1-4)Glc6S,0.253
same,glycan array binding signal (z-score),Gal6S(b1-4)GlcNAc,-0.332
same,glycan array binding signal (z-score),Gal6S(b1-4)GlcNAc6S,1.66
same,glycan array binding signal (z-score),GalNAc(a1-3)Gal,-0.255
same,glycan array binding signal (z-score),GalNAc(a1-3)GalNAc,-0.188
same,glycan array binding signal (z-score),[5],-0.677
same,glycan array binding signal (z-score),[6],-0.647
same,glycan array binding signal (z-score),[7],0.449
same,glycan array binding signal (z-score),GalNAc(b1-3)Gal,-0.175
same,glycan array binding signal (z-score),[8],0.096
same,glycan array binding signal (z-score),[9],-0.571
same,glycan array binding signal (z-score),[10],-0.479
same,glycan array binding signal (z-score),GalNAc(b1-3)GalNAc,0.367
same,glycan array binding signal (z-score),GalNAc(b1-3)GlcNAc,-0.184
same,glycan array binding signal (z-score),GalNAc(b1-4)Gal(b1-4)Glc,-0.32
same,glycan array binding signal (z-score),GalNAc(b1-4)GlcNAc,0.825
same,glycan array binding signal (z-score),[11],-0.267
same,glycan array binding signal (z-score),[12],0.289
same,glycan array binding signal (z-score),[13],-0.577
same,glycan array binding signal (z-score),GalNAc(b1-4)GlcNAc6S,-0.201
same,glycan array binding signal (z-score),GalNAc(b1-6)GalNAc,-0.571
same,glycan array binding signal (z-score),GalNAc3S(b1-4)GlcNAc,-0.43
same,glycan array binding signal (z-score),GalNAc3S(b1-4)GlcNAc3S,-0.49
same,glycan array binding signal (z-score),[14],-0.353
same,glycan array binding signal (z-score),GalNAc4S6S(b1-4)GlcNAc,-0.174
same,glycan array binding signal (z-score),GalNAc6S(b1-4)GlcNAc,-0.512
same,glycan array binding signal (z-score),Glc(a1-4)Glc,-0.508
same,glycan array binding signal (z-score),[15],-0.257
